Assay results reported in PubChem BioAssay AID504339 (National Center for Advancing Translational Sciences (NCATS), 2011).
The campaign covered roughly 390,000 compounds. About 17,000 (4.4%) were called active. Inconclusive results, whose numbers are uncertain, are shown with a selection of clear calls. Calls come from the whole dose curve; as a rule, active = well fitted inhibition curve with a large enough effect; inconclusive = small, poorly fitted or top-dose-only effect; inactive = no such curve, though single readings can be large or run the other way. Where the call is inconclusive, the potency comes from a doubtful curve fit.

target: Lysine-specific demethylase 4A (Homo sapiens) (UniProt O75164); assay: qHTS Assay for Inhibitors of JMJD2A-Tudor Domain; conditions: AlphaScreen JMJD2A-Tudor / H3K4me3 peptide binding; activity change, negative = inhibition: at 114 µM (top of the series); note: nearly all actives have a fitted effect of over 50% in size
UniProt O75164, sequence (O75164 whole entry, looked up, the tested form may be a part): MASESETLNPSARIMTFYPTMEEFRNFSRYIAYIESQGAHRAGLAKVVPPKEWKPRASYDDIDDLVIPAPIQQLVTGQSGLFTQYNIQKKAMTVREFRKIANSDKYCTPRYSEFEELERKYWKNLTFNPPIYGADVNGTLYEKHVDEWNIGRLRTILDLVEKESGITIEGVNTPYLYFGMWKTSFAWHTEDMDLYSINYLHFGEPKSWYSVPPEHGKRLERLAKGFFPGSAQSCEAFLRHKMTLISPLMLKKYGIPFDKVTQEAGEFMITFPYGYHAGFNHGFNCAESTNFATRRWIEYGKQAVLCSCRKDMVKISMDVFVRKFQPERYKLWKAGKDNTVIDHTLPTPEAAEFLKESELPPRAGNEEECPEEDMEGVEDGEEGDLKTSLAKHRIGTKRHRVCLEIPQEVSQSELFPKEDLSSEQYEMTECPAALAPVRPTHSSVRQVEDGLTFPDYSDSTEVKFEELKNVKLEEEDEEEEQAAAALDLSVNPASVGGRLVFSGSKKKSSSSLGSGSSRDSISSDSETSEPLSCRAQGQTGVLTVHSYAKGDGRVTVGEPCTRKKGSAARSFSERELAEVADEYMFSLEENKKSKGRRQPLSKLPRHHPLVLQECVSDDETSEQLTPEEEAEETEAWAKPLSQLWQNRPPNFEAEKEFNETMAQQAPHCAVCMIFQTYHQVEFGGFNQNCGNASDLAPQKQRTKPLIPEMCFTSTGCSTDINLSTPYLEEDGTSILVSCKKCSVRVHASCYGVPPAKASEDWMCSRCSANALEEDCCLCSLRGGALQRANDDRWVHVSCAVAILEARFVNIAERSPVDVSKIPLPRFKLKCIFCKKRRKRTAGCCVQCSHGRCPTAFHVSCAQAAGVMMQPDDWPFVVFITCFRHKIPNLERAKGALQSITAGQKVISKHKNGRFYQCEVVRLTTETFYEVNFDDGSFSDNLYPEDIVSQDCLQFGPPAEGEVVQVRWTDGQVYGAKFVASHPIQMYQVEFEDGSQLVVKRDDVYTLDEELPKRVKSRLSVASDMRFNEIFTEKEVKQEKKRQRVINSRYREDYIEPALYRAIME
% is set by controls: 0 for no effect and ±100 for the full control effect; potency is the fitted concentration of half-maximal effect; tags give direction and shape of the fitted curve.

With CCOc1ccc(N(CC(=O)N/N=C/c2ccc(OC(C)C)cc2)S(C)(=O)=O)cc1 as the compound, how does the Potency read?
The Potency was inconclusive: 79.4 µM [inhibitor, single point].

For Cc1ccc2c(nc3s/c(=C\c4ccc(-c5ccccc5C(=O)O)o4)c(=O)n32)c1C, which Potency is on record?
Its Potency is inconclusive: 79.4 µM [inhibitor, partial curve].

For O=C(COc1coc(CN2CCc3ccccc32)cc1=O)N1CCCCC1, which Potency is on record?
Its Potency is “inactive”.

With COc1cc(=O)n2c(-c3ccccc3)csc2n1 as the compound, how does the activity change, negative = inhibition read?
The activity change, negative = inhibition was inactive: -3.82% [at 11.4 µM].

How did the Potency turn out when CCN(c1ccccc1)S(=O)(=O)c1ccc(NC(=O)c2nc(SC(C)C)ncc2Cl)cc1 was run?
Its Potency is “inactive”.

With COCc1cc(=O)n2[nH]c(C)c(-c3ccccc3)c2n1 as the compound, how does the Potency read?
The Potency was inconclusive: 39.8 µM [inhibitor, partial curve].

With Cc1cc2cc(CNC(=O)Cc3cccs3)ccc2n1C as the compound, how does the Potency read?
The Potency was inconclusive: 39.8 µM [inhibitor, partial curve].

Which Potency does the source give for COc1ccccc1NC(=O)c1ccc2[nH]c(C)c(C)c2c1 here?
Its Potency is inconclusive: 56.2 µM [inhibitor, partial curve].

With Cc1cc([N+](=O)[O-])cc2c1NC(c1ccccn1)C1CC=CC21 (stereo not given) as the compound, how does the Potency read?
The Potency was active: 50.1 µM.

CCC(=O)N(CC)C1=C(O)c2ccccc2C(=O)C1=O was tested. Which Potency did it give?
The Potency was active: 5.62 µM.

How did the Potency turn out when Cn1cccc1CNCc1ccccc1Cl was run?
The Potency was inconclusive: 50.1 µM [inhibitor, partial curve].

COc1ccc(NC(=O)Nc2c(C)n(C)n(-c3ccccc3)c2=O)c(OC)c1 was tested. Which Potency did it give?
The Potency was “inactive”.

Which Potency does the source give for COc1ccc(CCNC(=O)c2coc(=O)c(Br)c2)cc1 here?
Its Potency is “inactive”.

How did the Potency turn out when O=C(O)c1cn[nH]c1-n1cnnn1 was run?
Its Potency is inconclusive: 31.6 µM [inhibitor, full curve].

Which Potency does the source give for Cc1ccc(OCc2nc(C#N)c(N3CCCCC3)o2)cc1 here?
The Potency was inconclusive: 56.2 µM [inhibitor, partial curve].

With COc1ccc(Cn2c(C(=O)O)c(CNC3CCCCC3)c3ccc(C)cc32)cc1 as the compound, how does the Potency read?
Its Potency is “inactive”.

Which Potency does the source give for Cc1ccc(-n2nc3c(N4CCC(C(=O)NCc5cccc(F)c5)CC4)nnc(C)c3c2C)cc1 here?
Its Potency is “inactive”.

With COc1cccc(CNC(=O)CCC2CCCN(C(=O)c3ccc(OC)o3)C2)c1 (stereo not given) as the compound, how does the Potency read?
Its Potency is “inactive”.

For CC1=NC(=O)C(N=Nc2cccc(C(=O)O)c2)N1c1ccccc1 (stereo not given), which Potency is on record?
The Potency was inconclusive: 39.8 µM [inhibitor, partial curve].

Which Potency does the source give for COc1ccc(CCNC(=S)NNC(=O)c2c(Br)c(C)nn2C)cc1OC here?
Its Potency is “inactive”.

How did the Potency turn out when COC(=O)C1=C(C)N(Cc2ccccc2)C(=S)N[C@H]1c1ccccc1 was run?
Its Potency is inconclusive: 56.2 µM [inhibitor, partial curve].

O=C(O)/C(CC(=O)c1ccc(Cl)cc1)=N/Nc1ccc([N+](=O)[O-])cc1[N+](=O)[O-] was tested. Which Potency did it give?
The Potency was active: 39.8 µM.

For CCC1CCCCN1CCCNC(=O)CCC(=O)N1CC(C)Oc2ccccc21 (stereo not given), which Potency is on record?
The Potency was “inactive”.

How did the Potency turn out when c1ccc(CCn2nnnc2C(c2cccs2)N2CCOCC2)cc1 (stereo not given) was run?
Its Potency is inconclusive: 50.1 µM [inhibitor, partial curve].

For CCc1cccc(C)c1NC(=O)CCS(=O)(=O)c1ccc2c(c1)oc(=O)n2C, which Potency is on record?
The Potency was active: 79.4 µM.

For O=S(=O)(c1ccccc1)N1CCN(CC(O)COc2ccc3c(c2)CCC3)CC1 (stereo not given), which Potency is on record?
Its Potency is “inactive”.

Which Potency does the source give for Oc1ccccc1C1SC(c2ccccc2O)SC(c2ccccc2O)S1 (stereo not given) here?
Its Potency is inconclusive: 39.8 µM [inhibitor, partial curve].

O=C(Cc1ccc(Cl)cc1)Nc1ccc2oc(-c3ccccc3F)nc2c1 was tested. Which Potency did it give?
Its Potency is inconclusive: 50.1 µM [inhibitor, partial curve, poor fit].

Which Potency does the source give for O=c1[nH]c(=S)[nH]c2c1C(c1ccc(Br)cc1)c1c([nH]c(=S)[nH]c1=O)O2 here?
The Potency was inconclusive: 50.1 µM [inhibitor, single point].

For COc1ccc(OC)c(NC(=O)CSc2ncnc3sc(C)cc23)c1, which Potency is on record?
The Potency was inconclusive: 31.6 µM [inhibitor, partial curve].

For CCOC(=O)C1=CC[C@@H](c2cc3ccc(OC)cc3n2C)N(S(=O)(=O)c2ccc(C)cc2)[C@H]1C(=O)OCC, which Potency is on record?
Its Potency is inconclusive: 8.91 µM [inhibitor, full curve, poor fit].

Which Potency does the source give for Nc1nc(CN2CCN(Cc3ccc4c(c3)OCO4)CC2)nc(Nc2ccccc2)n1 here?
Its Potency is inconclusive: 63.1 µM [inhibitor, partial curve].

For CC(C)CC1=C/C(=C/c2ccc(-c3ccccc3)o2)C(=O)O1, which Potency is on record?
The Potency was inconclusive: 25.1 µM [inhibitor, single point].

For CCOc1ccccc1-n1nnnc1SCC(=O)NC(=O)NCc1ccco1, which Potency is on record?
The Potency was inconclusive: 22.4 µM [inhibitor, full curve].

CN(Cc1nc2ccccc2c(=O)[nH]1)Cc1cc(=O)oc2ccc3ccccc3c12 was tested. Which Potency did it give?
The Potency was inconclusive: 50.1 µM [inhibitor, full curve, poor fit].

With Cc1ccc(Nc2c(-c3ccc(C)cc3)nc3c(C)cccn23)cc1 as the compound, how does the Potency read?
The Potency was inconclusive: 12.6 µM [inhibitor, partial curve, poor fit].

How did the Potency turn out when CC(C)c1ccc(Nc2c(-c3ccc(N(C)C)cc3)nc3cnccn23)cc1 was run?
The Potency was inconclusive: 11.2 µM [inhibitor, full curve].

COc1ccc(NC(=O)C(C(C)C)N2Cc3ccccc3C2=O)cc1 (stereo not given) was tested. Which Potency did it give?
The Potency was “inactive”.

With COc1ccc(N/C=C\C(=O)c2ccc3ccccc3c2)cc1 as the compound, how does the Potency read?
Its Potency is “inactive”.

How did the Potency turn out when CCc1ccc(N2C(=O)C(Cl)=C(Nc3ccc(C(=O)N4CCCC4)cc3)C2=O)cc1 was run?
Its Potency is inconclusive: 10 µM [inhibitor, full curve, poor fit].

O=C1CC(Sc2ccc(Cl)cc2)C(=O)N1Cc1ccncc1 (stereo not given) was tested. Which Potency did it give?
Its Potency is “inactive”.

How did the Potency turn out when COc1ccc(C(=O)C(C)Oc2cccc(NC(=O)c3cccc([N+](=O)[O-])c3)c2)cc1 (stereo not given) was run?
Its Potency is inconclusive: 50.1 µM [inhibitor, partial curve].

Which Potency does the source give for O=C(c1cc2ccc3cccnc3c2[nH]1)N1CCN(c2cccc(Cl)c2)CC1 here?
The Potency was inconclusive: 12.6 µM [inhibitor, full curve].

With CCOC(=O)Cc1csc(NC(=O)NC2(C(F)(F)F)Oc3ccc(Cl)cc3O2)n1 (stereo not given) as the compound, how does the Potency read?
The Potency was inconclusive: 17.8 µM [inhibitor, full curve].

For CC1(C)Cc2c(c(-c3ccco3)nc3sc4c(NCC5CCCO5)ncnc4c23)CO1 (stereo not given), which Potency is on record?
The Potency was inconclusive: 79.4 µM [inhibitor, single point].

Cc1[nH]c2ccccc2c1/C=N/NC(=O)C1CC1(c1ccccc1)c1ccccc1 (stereo not given) was tested. Which Potency did it give?
Its Potency is inconclusive: 56.2 µM [inhibitor, single point].

For Cc1ccc(SCCCCN2CCNCC2)cc1, which Potency is on record?
The Potency was active: 11.2 µM.

CN(C)C(=O)CSc1ccc(S(=O)(=O)N2CCCC2)cn1 was tested. Which Potency did it give?
The Potency was “inactive”.

CC1CN(C(=O)CCC(=O)NCc2ccccc2Cl)c2ccccc2S1 (stereo not given) was tested. Which Potency did it give?
The Potency was “inactive”.

NC(=O)c1ccsc1NC(=O)CSc1nnc2ccccn12 was tested. Which Potency did it give?
Its Potency is inconclusive: 79.4 µM [inhibitor, partial curve].

How did the Potency turn out when COc1ccc(N2CCN(C(=O)c3oc4ccccc4c3C)CC2)cc1 was run?
Its Potency is active: 39.8 µM.

How did the Potency turn out when COc1ccc(S(=O)(=O)N2CCC(C(=O)N[C@H](C(=O)N3CCCC3)C(C)C)CC2)cc1 was run?
The Potency was inconclusive: 15.8 µM [inhibitor, full curve].

CCS(=O)(=O)N1CCc2cc(C(=O)NCc3ccccc3Cl)ccc21 was tested. Which Potency did it give?
The Potency was inconclusive: 79.4 µM [inhibitor, partial curve].

Cc1ccc2cc(C(c3nnnn3Cc3ccccc3)N3CCc4ccccc43)c(=O)[nH]c2c1 (stereo not given) was tested. Which Potency did it give?
Its Potency is inconclusive: 10 µM [inhibitor, full curve].

Which Potency does the source give for Oc1[nH]c2ccccc2c1N=Nc1ccc(F)cc1 here?
Its Potency is “inactive”.

For COc1ccccc1NC(=O)C(C)N1C(=O)C2CCCCC2C1=O (stereo not given), which Potency is on record?
The Potency was “inactive”.

CCCc1sc(N)nc1-c1ccc(Cl)cc1 was tested. Which Potency did it give?
The Potency was “inactive”.

Cc1ccc(-n2nc3c(=O)n(C(C)C(=O)NCc4ccc5c(c4)OCO5)nc(C)c3c2C)cc1 (stereo not given) was tested. Which Potency did it give?
The Potency was inconclusive: 89.1 µM [inhibitor, partial curve].

Which Potency does the source give for COc1ccccc1-c1nc(SCC(=O)c2ccc(Cl)cc2)n[nH]1 here?
The Potency was “inactive”.

With CCC(=O)Nc1sc2c(c1C(=O)Nc1ccc(Br)cc1)CCCCC2 as the compound, how does the Potency read?
The Potency was inconclusive: 56.2 µM [inhibitor, partial curve].

With COc1ccc(C2CC(c3cccs3)=NN2C(=S)Nc2ccccc2)cc1OC (stereo not given) as the compound, how does the Potency read?
The Potency was inconclusive: 17.8 µM [inhibitor, partial curve].

For Cc1nc2c(C)cccn2c1/C(O)=C1\C(=O)C(=O)N(CCN2CCOCC2)C1c1cccs1 (stereo not given), which Potency is on record?
The Potency was inconclusive: 22.4 µM [inhibitor, partial curve, poor fit].

How did the Potency turn out when CN(C)S(=O)(=O)c1cccc(NC(=O)COC(=O)/C=C/c2ccco2)c1 was run?
Its Potency is inconclusive: 31.6 µM [inhibitor, single point].

With O=C(N/N=C/c1ccc([N+](=O)[O-])o1)C(O)c1ccccc1 (stereo not given) as the compound, how does the Potency read?
The Potency was “inactive”.

Which Potency does the source give for Cc1cccc(N2CCN(C(=O)c3cc4ccc5cccnc5c4[nH]3)CC2C)c1 (stereo not given) here?
The Potency was active: 28.2 µM.

O=C1CC(c2ccccc2)=NO1 was tested. Which Potency did it give?
The Potency was inconclusive: 100 µM [inhibitor, partial curve].

Which Potency does the source give for CCOc1ccc(-c2nc(C#N)c(N3CCN(CC)CC3)o2)cc1 here?
Its Potency is inconclusive: 11.2 µM [inhibitor, full curve, poor fit].

For COc1cccc(-c2nn(-c3ccc(C)cc3)cc2C(=O)N2CCc3cc(OC)c(OC)cc3C2)c1, which Potency is on record?
Its Potency is inconclusive: 39.8 µM [inhibitor, partial curve].

Which Potency does the source give for CCCn1c(SCC(=O)Nc2ccccc2CC)nnc1C(C)C here?
Its Potency is inconclusive: 3.98 µM [inhibitor, single point].

Which Potency does the source give for CCOc1cc(C(c2c(C)[nH][nH]c2=O)c2c(C)[nH][nH]c2=O)ccc1OS(=O)(=O)c1ccc(C)cc1 here?
Its Potency is inconclusive: 56.2 µM [inhibitor, partial curve].
